# Test results published in the supplement of paper PMC3724861.
# The other results are listed elsewhere or left out.
# System: T1, Caupolican (Caup) homeodomain DNA-binding domain
# T1 sequence: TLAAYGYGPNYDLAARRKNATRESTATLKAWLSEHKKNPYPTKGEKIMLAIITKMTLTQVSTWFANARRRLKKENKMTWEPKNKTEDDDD
# Assay: PBM E-score (8-mer, recovered from the published 9-mer minima) (E-score (dimensionless, -0.5 to 0.5)); Drosophila protein; higher = stronger relative binding preference, active = 0.31 or more
# Description: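 Protein binding microarray (PBM): in vitro transcribed/translated Caupolican (Caup) homeodomain DNA-binding domain (residues 214-303) applied at 100 nM to a universal 8-mer PBM array (Agilent AMADID 015681). The 8-mer enrichment score (E-score, range -0.5 to 0.5) was computed, and each 9-mer score is the minimum E-score of its two constituent 8-mers. The E-score is the same for a 9-mer and its reverse complement; 0.31 is the stated binding threshold.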
row,Sequence,PBM E-score
1,TCTATAAA,inactive: 0.144
2,CCCATGCA,inactive: -0.119
3,ACCGCGAG,inactive: -0.123
4,TTAGTAAA,inactive: 0.174
5,GACTAGCC,inactive: -0.0678
6,ATTGATGA,inactive: 0.104
7,CGGAACCA,inactive: -0.00317
8,CGGCCCAA,inactive: -0.235
9,AGATGCCG,inactive: -0.131
10,AAGTAGGC,inactive: -0.107
11,AGGGGATG,inactive: -0.0667
12,ACGATGGA,inactive: 0.0491
13,ACGGTGTG,inactive: 0.0134
14,ACAGAAGA,inactive: 0.101
15,GTACGCTA,inactive: 0.0182
16,CCACAAAG,inactive: -0.171
17,CCGAATAA,inactive: 0.0745
18,ACATTTTG,inactive: 0.246
19,CGCGCAAG,inactive: -0.107
20,TCCTCAGA,inactive: -0.00186
21,CCTCTGAC,inactive: -0.115
22,AAGATCAT,≥ 0.138
23,CTAAGTTA,inactive: 0.0634
24,CGAGCCAC,inactive: -0.165
25,CAACAACC,inactive: 0.238

row,Sequence,PBM E-score
1,AACATCTG,inactive: 0.22
2,CTGCGAAG,inactive: -0.122
3,AACAGAGC,inactive: 0.0463
4,ATCAGGAA,≥ 0.0539
5,CCGCTGCA,inactive: -0.115
6,ATAGACGC,inactive: 0.0697
7,CTGTGACA,inactive: 0.242
8,AGCCGAGA,≥ -0.0955
9,GGCACCCC,inactive: -0.261
10,CAAGGAGG,inactive: -0.0216
11,ATGCCCCA,inactive: -0.165
12,CGACTAGC,inactive: -0.0279
13,AGACACGG,inactive: 0.279
14,CTGTCTTA,inactive: 0.0792
15,AATCTTCT,inactive: -0.0109
16,AGAATCCG,inactive: -0.00411
17,TCGGGAGA,≥ -0.0618
18,TAGTAGGA,inactive: -0.0352
19,AGGTATAC,inactive: 0.174
20,ACCGACAC,inactive: 0.145
21,ACCGGGCC,inactive: -0.228
22,GCTTTGAC,inactive: -0.0287
23,GAATTCGC,inactive: -0.0756
24,ATGCTCCA,inactive: 0.00184
25,AAAAGAGG,inactive: -0.085

row,Sequence,PBM E-score
1,CGACGCCG,inactive: -0.174
2,CAATCTCG,inactive: 0.0293
3,GACGTATC,inactive: -0.0513
4,AAGGACGA,inactive: -0.0282
5,GCAAACGC,inactive: -0.0897
6,AGGCCTCG,inactive: -0.23
7,AATATTCG,inactive: 0.121
8,AGATGACT,inactive: -0.0736
9,CCCTACCC,inactive: -0.125
10,GACGTGCA,inactive: -0.0198
11,AATATTGA,inactive: 0.0813
12,AAGCATTA,inactive: 0.109
13,CAATGCGC,inactive: -0.0419
14,TGGGAAAA,inactive: -0.0544
15,TCTCAGAA,inactive: -0.0046
16,TCAAGTGA,inactive: 0.0578
17,CTACGGGC,inactive: -0.231
18,CAGGTAGC,inactive: -0.0102
19,CCTCATCC,inactive: -0.161
20,ACACCGTA,inactive: 0.139
21,ACTTCGCA,inactive: -0.1
22,CCGTAGCG,inactive: -0.221
23,ATCATCAC,≥ 0.161
24,CTGGGGAA,inactive: -0.227
25,AGAACCTC,inactive: -0.133

row,Sequence,PBM E-score
1,TAATTGTA,inactive: 0.243
2,GCCTGCAC,inactive: -0.182
3,ACGCGGGA,inactive: -0.141
4,CGCCACGA,inactive: -0.0847
5,GTTACATA,active: 0.365
6,ACTTTGTG,inactive: 0.00955
7,AACGGATG,inactive: 0.054
8,CGTCTACA,inactive: 0.091
9,CTCTCATA,inactive: -0.00226
10,TGGCCGAA,inactive: -0.0603
11,GTTCGGTA,inactive: 0.127
12,CCCTAAGC,inactive: -0.169
13,CAGGGTGA,inactive: -0.0887
14,CGTGCGCA,inactive: -0.137
15,CAAGTCTG,inactive: 0.0802
16,CCAACATA,inactive: 0.211
17,CATGACAC,active: 0.363
18,CGATGCTA,inactive: -0.0386
19,ACTTCTGG,inactive: 0.0268
20,ATCTGAAC,inactive: 0.116
21,CAGCATTC,inactive: -0.0312
22,AGTCGCTC,inactive: -0.0941
23,AGCCTACT,inactive: -0.116
24,CCTACGCA,≥ 0.0201
25,TAACTTGA,inactive: 0.154

row,Sequence,PBM E-score
1,CGTCTTCC,inactive: -0.0698
2,GCCATCAA,inactive: -0.048
3,AAGCGTCG,inactive: -0.0819
4,GTTGCCGA,inactive: -0.0733
5,GACCGAGA,inactive: -0.103
6,CCCTCCAG,inactive: -0.268
7,AACCTCGC,inactive: -0.0388
8,ATCGTCCC,inactive: 0.0273
9,ACCACAAA,inactive: 0.0575
10,CCTTAGAC,inactive: -0.0508
11,AATATAAT,inactive: 0.242
12,CCGACGAC,inactive: -0.024
13,AAGGTGAT,inactive: 0.0818
14,CGTGCCAG,inactive: -0.128
15,AGGCAGCA,inactive: -0.0464
16,CTCCATTA,inactive: -0.0994
17,GATATGTA,active: 0.321
18,CCCTACTA,inactive: -0.0232
19,CAGCAAAC,inactive: 0.0702
20,CGGCTCGC,inactive: -0.209
21,CATTGAAG,inactive: 0.0378
22,TTAGCGAA,inactive: 0.00184
23,ATCATTTG,inactive: 0.103
24,GGGTAATA,inactive: 0.112
25,TGGGTACA,inactive: 0.175

row,Sequence,PBM E-score
1,TAGCGTGA,inactive: 0.0444
2,AATAAGAT,≥ 0.144
3,ACTTTTAT,inactive: -0.0194
4,CGATACGA,inactive: 0.0557
5,AGCCACAG,inactive: -0.178
6,TAAACGGA,inactive: -0.01
7,TCACTGCA,≥ 0.0398
8,CGATGCTC,inactive: -0.13
9,ATGCTGAC,inactive: 0.119
10,ACAAGCAT,active: 0.377
11,GAAGTAGA,≥ 0.14
12,ACAAAAAG,inactive: 0.0414
13,CCCCTACC,inactive: -0.165
14,CAATTCCA,inactive: -0.0137
15,ACTTTGTA,inactive: 0.199
16,CGGCCTAC,inactive: -0.0509
17,ATCTACAC,inactive: 0.227
18,CCCGATAG,inactive: -0.0763
19,CTTACTGA,inactive: 0.0357
20,CGTTATGC,inactive: -0.0174
21,AGTACCGC,inactive: 0.0483
22,ATGGTCGG,inactive: -0.017
23,ATTGTCTG,inactive: 0.142
24,GTGCACAA,inactive: 0.0769
25,GGTTTAAA,inactive: 0.118

row,Sequence,PBM E-score
1,ACGTCGAA,inactive: -0.0527
2,AAGTCCGT,inactive: -0.0401
3,CAGAAAGC,inactive: -0.0118
4,CAATATAG,inactive: 0.149
5,CTGCACTA,inactive: -0.0752
6,AGGCATAA,inactive: -0.0593
7,GAAAGTGA,inactive: 0.0715
8,AACCAGAA,inactive: 0.0845
9,AGATCTTG,inactive: 0.0852
10,AACTCTGA,inactive: 0.0245
11,ACTAGGAC,inactive: 0.104
12,AGCGCAAT,≥ -0.00045
13,AAATTACT,inactive: 0.124
14,CTGAATTA,inactive: 0.0828
15,CTGCTAGC,inactive: -0.102
16,CCGACCAC,inactive: -0.00916
17,TCACAGCA,inactive: 0.0454
18,AAAGTAAT,inactive: 0.145
19,AGAAGTAC,inactive: 0.0883
20,GAGATCAC,inactive: 0.0775
21,TGCGCAAA,inactive: -0.112
22,AACACACA,active: ≥ 0.313
23,GAATTAGC,inactive: 0.0316
24,GCGGTACC,inactive: -0.14
25,TGCCAGCA,≥ -0.0467

row,Sequence,PBM E-score
1,GTCGTGAA,inactive: 0.0715
2,CAAGCACA,inactive: 0.0876
3,AATAATTG,inactive: 0.0801
4,CAAGGTTA,inactive: 0.0455
5,CAGACCAA,inactive: -0.0774
6,ACCTCCGC,inactive: -0.179
7,CCGTACGG,inactive: -0.112
8,ACAGTGGG,inactive: -0.0749
9,AAAGTATA,inactive: 0.136
10,CTTGTTCA,active: 0.33
11,CAACAGGG,inactive: 0.0597
12,AACGGCGG,inactive: -0.15
13,AGCGACCG,inactive: -0.0911
14,GTGCCTAA,inactive: -0.0543
15,AATGATAT,inactive: 0.129
16,AGGGACAT,inactive: 0.249
17,GACGGCTA,inactive: -0.167
18,ACAGAGTG,inactive: 0.109
19,AGAATAAA,inactive: 0.133
20,ATGCGTCG,inactive: 0.0334
21,TAAGAATA,inactive: 0.0684
22,GCAAAATA,inactive: 0.0822
23,CATGCCCG,inactive: -0.0275
24,CGCAATGA,inactive: 0.0631
25,GGTCGACC,inactive: -0.123

row,Sequence,PBM E-score
1,CTTCTTCA,inactive: -0.0456
2,GCAATAGC,inactive: -0.0338
3,CATCATAA,inactive: 0.177
4,CTAATGAC,inactive: 0.0539
5,CCAGAAAA,inactive: -0.00907
6,CCGTGGTA,inactive: 0.134
7,AACGGCCC,inactive: -0.282
8,ACGGTATC,inactive: 0.00523
9,ATCGTGAA,inactive: -0.00203
10,CAGTAAAA,inactive: 0.0217
11,CAACAACG,inactive: 0.227
12,CCTTTAGA,inactive: -0.0722
13,CCGATAGA,inactive: -0.0623
14,CAGTATCG,inactive: 0.0297
15,ACAAGCCA,inactive: 0.213
16,ACCTATTA,inactive: 0.129
17,ATAAACTC,inactive: 0.0627
18,CTGCTGGA,inactive: -0.111
19,CCATGACA,inactive: 0.137
20,CTCGTGCC,inactive: -0.165
21,AGGCAATG,inactive: -0.0488
22,CCCTGGCG,inactive: -0.212
23,CGGCAAGC,inactive: -0.13
24,CCGCACAG,inactive: -0.187
25,ATTCATAA,inactive: 0.133
